# Reference: PubChem BioAssay AID2101 (National Center for Advancing Translational Sciences (NCATS), 2009)
# The whole screen tested about 330,000 compounds, of which about 300 (0.091%) were called active. Inconclusive results, whose numbers are uncertain, are shown with a selection of clear calls. Calls come from the whole dose curve; as a rule, active = well fitted inhibition curve with a large enough effect; inconclusive = small, poorly fitted or top-dose-only effect, or effect the other way, or another doubt; inactive = no such curve, though single readings can be large or run the other way. No potency is given beside an inconclusive call; the fits are too rough.
# Biological target: Lysosomal acid glucosylceramidase (Homo sapiens) (UniProt P04062)
# Assay: qHTS Assay for Inhibitors and Activators of N370S glucocerebrosidase as a Potential Chaperone Treatment of Gaucher Disease;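 for activity change, negative = inhibition: 0% = full enzyme activity and -100% = no enzyme basal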
# Settings: N370S GC spleen homogenate, 4MU-glucoside fluorescence; activity change, negative = inhibition: at 59.4 µM (top of the series) unless noted
# Potency is the fitted concentration of half-maximal effect.
Compound,"activity change, negative = inhibition",Potency
CCOc1[nH]n(-c2ccc(Cl)cc2)c(=O)c1C=Nc1ccc(O)cc1,inactive: -12.7%,
Cc1ccc2cc(/C=N/Nc3nc4ccccc4[nH]3)c(Cl)nc2c1,inactive: 2.43%,
O=C(NNc1ccc(C2CCCCC2)cc1)C(O)(c1ccccc1)c1cccs1 (configuration not stated),,"inconclusive [activator, partial curve]"
N#Cc1ccccc1S(=O)(=O)N1CCN(c2nc(-c3cccnc3)nc3ccccc23)CC1,,"inconclusive [inhibitor, partial curve]"
O=C(NCc1ccccc1)c1cnc2n(c1=O)CCS2,inactive: 14.5%,
COc1cc(OC)cc(C(=O)Nc2c(C)nn(-c3ccccc3)c2C)c1,inactive: -9.8%,
CCOC(=O)c1cc(-c2nnc(-c3ccc(Oc4ccccc4)cc3)o2)c(C)nc1C,inactive: 0.952%,
Cn1c(SCc2nnc(-c3ccccc3)o2)nc2ccccc21,,"inconclusive [activator, partial curve]"
CCC(C)N(C(=O)Cn1nnc(-c2ccc(Cl)cc2)n1)C1CCS(=O)(=O)C1 (configuration not stated),,"inconclusive [inhibitor, partial curve, poor fit]"
CC1=C(C#N)c2nc(N)c(C#N)c(C)c2/C1=C\c1ccc(OCC(=O)O)c(Cl)c1,inactive: -17.5%,
O=c1oc(-c2ccccc2)nc2sc3c(c12)CCCC3,inactive: 19.7%,
c1ncc(CCCC2CCNCC2)[nH]1,inactive: -0.443%,
C/C=C\C=C/C(=O)Nc1cccc(C2=NOC3(C2)C[C@@H](C(N)=O)N(C(=O)/C=C/C=C\C)C3)c1 (some centres not stated),inactive: 9.65%,
O=C(Nc1ccc(Cl)c(Cl)c1)N(CCCN1CCOCC1)Cc1cccnc1,inactive: -14.8%,
COc1ccc(CCn2c(N)c(S(=O)(=O)c3cccs3)c3nc4ccccc4nc32)cc1OC,,"inconclusive [activator, partial curve]"
CCOC(=O)c1[nH]c(C)c(C(=O)OCc2ccccc2F)c1C,inactive: -6.72%,
O=C(CSc1ccccc1C(=O)O)c1ccc(Cl)cc1,inactive: -8.06%,
CCOC(=O)N1CCC(NC(=O)CC(NS(=O)(=O)c2ccc(Cl)cc2)c2ccco2)CC1 (configuration not stated),inactive: 1.17%,
Cn1c(/C(C#N)=C/c2ccncc2)nc2ccccc21,inactive: 3.64%,
CCC1Sc2ccc(S(=O)(=O)CCC(=O)NCc3ccc(C)o3)cc2NC1=O (configuration not stated),,"inconclusive [inhibitor, single point]"
Cc1ccnc(NC(=O)c2cc(-c3ccc(Cl)s3)nc3ccccc23)c1,,"inconclusive [activator, single point]"
COc1cccc(/C=C/c2ccccn2)c1O,inactive: 18.7%,
O=C1c2ccccc2NC(c2ccc(-c3ccc(Br)cc3)o2)N1O (configuration not stated),,"inconclusive [activator, single point]"
CO[C@H]1COC(=O)[C@@H](CCSC)NC(=O)C/C=C\[C@@H](C)COC(=O)[C@@H](OCc2ccccc2)/C=C\[C@@H]1C,inactive: -2.6% [at 12.8 µM],

Compound,"activity change, negative = inhibition",Potency
Cc1cc(C)n(CC(O)COc2ccccc2C)n1 (configuration not stated),inactive: 1.74%,
COc1ccc(N=Nc2nc(-c3ccccc3)c(-c3ccccc3)[nH]2)cc1,inactive: -2.06%,
O=C1CC(c2ccco2)CC2=C1C1c3ccccc3C(=O)N1c1ccccc1N2 (configuration not stated),inactive: -1.45%,
CCCN(CCC)CCNC(=O)CCC(=O)Nc1ccc2nc(N3CCOCC3)cc(C)c2c1,,"inconclusive [activator, partial curve]"
C#Cc1ccc([C@H]2C=C(C(=O)N3CCN(Cc4ccccc4)CC3)O[C@@H](OCc3ccc(CO)cc3)C2)cc1,inactive: 5.36%,
CCCCC(NC(=O)COc1cc2c(c3oc(=O)cc(C)c13)CCC(C)(C)O2)C(=O)O (configuration not stated),,"inconclusive [activator, single point]"
CCOc1ccc(CCNS(=O)(=O)c2ccc3c(c2)oc(=O)n3C)cc1OCC,,"inconclusive [inhibitor, full curve, poor fit]"
Cc1cccc(C(=O)OCC(=O)N(CC(C)C)c2c(N)n(Cc3ccccc3)c(=O)[nH]c2=O)c1C,,"inconclusive [activator, single point]"
CCN(CC)CCNC(=O)c1ccc(NC(=O)c2ccc(Cl)c(S(=O)(=O)Nc3ccccc3OC)c2)cc1,,"inconclusive [inhibitor, single point]"
CC(C)CN=c1cc(-c2ccccc2)oc2ccc(Cl)cc12,inactive: -19.4%,
CC(C(O)c1ccc(O)cc1)N1CCC(Cc2ccccc2)CC1 (configuration not stated),,"inconclusive [inhibitor, single point]"
CCOC(=O)c1sc(-c2ccc(Br)cc2)cc1N,inactive: 2.22% [at 12.8 µM],
N=c1n(CCO)c2ccccc2n1CCOc1ccc(Cl)cc1Cl,,"inconclusive [inhibitor, partial curve]"
CCCc1cc(=O)[nH]c(SCC(=O)c2cc(C)n(CCC)c2C)n1,,"inconclusive [activator, single point]"
CN(C)CCCn1c(N)c(C#N)c2nc3ccccc3nc21,,"inconclusive [activator, partial curve]"
CC1CCC(NC(=S)NCCN(C)C)CC1 (configuration not stated),inactive: 7.38%,
COc1ccc(C2C3=C(CC(C)(C)CC3=O)Nc3cc4c(cc32)OCO4)cc1 (configuration not stated),,"inconclusive [activator, partial curve]"
O=C(NCC(c1ccco1)N1CCc2ccccc21)c1ccccc1F (configuration not stated),,"inconclusive [inhibitor, full curve, poor fit]"
COc1ccc2nc(SCC(=O)N3CC(=O)Nc4ccccc43)c(C#N)cc2c1,,"inconclusive [inhibitor, partial curve]"
CCN(C(=O)CSc1nnc(-c2ccccc2)o1)c1c(N)n(Cc2ccccc2)c(=O)[nH]c1=O,inactive: 11.4%,
CCCCCn1c(=O)[nH]c2cc(C(=O)NCCCN3CCCCC3C)ccc2c1=O (configuration not stated),,"inconclusive [activator, partial curve]"
CC(=O)Nc1ccc(S(=O)(=O)N(CCc2ccccc2)CC(=O)N/N=C/c2ccc(C(=O)O)cc2)cc1,,"inconclusive [inhibitor, partial curve]"
C/C=C(/C)C(=O)O[C@H]1C[C@@]2(C)O[C@H]2[C@@H](OC(C)=O)C2(C)CC[C@@](O)(C(C)C)C12 (some centres not stated),inactive: 1.95%,
O=C1CN(C(=O)COC(=O)c2ccc(N3CCCCCC3)c([N+](=O)[O-])c2)c2ccccc2N1,inactive: 1.62%,

Compound,"activity change, negative = inhibition",Potency
CC(C)c1c(C(=O)N/N=C/c2ccncc2)nnn1-c1nonc1N,,"inconclusive [inhibitor, full curve, poor fit]"
Cc1[nH]nc2c1/C(=N\O)CC(C)(C)C2,inactive: -3.11%,
COc1ccc2c(c1)OC/C(=C/c1cccs1)C2=O,,"inconclusive [activator, partial curve]"
CCOc1ccc(N(CC(=O)Nc2cccc(C)c2C)S(=O)(=O)c2c(C)[nH]c(=O)[nH]c2=O)cc1,,active: 11.2 µM
CCOC(=O)C1=C(N)Oc2c(c(=O)[nH]c3ccccc23)C1c1ccccc1 (configuration not stated),,"inconclusive [activator, full curve]"
COc1ccccc1N1CC(O)=C(c2nc3ccccc3c(=O)[nH]2)C1=N,inactive: 26.3%,
COc1ccc(/C(N)=N/OC(=O)C2CCCCC2)cc1OC,inactive: 4.61%,
O=C(NCN1CCN(c2ccccc2F)CC1)c1cccnc1,,"inconclusive [inhibitor, single point]"
Cc1ccc(-c2cn(-c3ccc(OC(F)F)cc3)c3[n+]2CCCCC3)cc1,inactive: 2.22%,
C=CCOc1ccc(/C=C2/C(=O)ON=C2C)cc1OC,,"inconclusive [inhibitor, partial curve]"
Cc1cc(O)c(NC(=O)c2ccco2)cc1C,inactive: 6.67%,
COc1cccc(N2CCN(C(=O)CCNS(=O)(=O)c3ccc4c(c3)c(=O)n(C)c(=O)n4C)CC2)c1,,"inconclusive [inhibitor, full curve]"
Cn1c(=O)n(CCc2ccccc2)c(=O)c2c1nc1n2CCCN1CCc1ccccc1,inconclusive: 25.6% [activator],
O=C(NCc1ccccc1)C(c1cccs1)N(Cc1cccs1)C(=O)c1cnccn1 (configuration not stated),,"inconclusive [activator, single point]"
CSc1nc(N2CCOCC2)c2c(c1C#N)CC(C)(C)OC2,,"inconclusive [activator, partial curve]"
Fc1ccc2nc(C(F)(F)F)cc(N3CCOCC3)c2c1,,"inconclusive [inhibitor, single point]"
c1c2c(cc3sc(N4CCCCC4)nc13)OCO2,,"inconclusive [inhibitor, full curve, poor fit]"
CCOC(=O)c1cc(-c2ccccc2)nn1Cc1cc(CC)no1,,"inconclusive [inhibitor, single point]"
CCOCCCNC(=O)C(NC(=O)c1ccc2c(c1)OCO2)c1ccc(Cl)cc1 (configuration not stated),,"inconclusive [activator, single point]"
CC(C)C(=O)Nc1nnc(SCC(=O)NC2CC2)s1,,"inconclusive [inhibitor, single point]"
N#CC1=C(N)Oc2ccc3ccccc3c2C1c1cccnc1 (configuration not stated),,"inconclusive [inhibitor, single point]"
CC(C)c1ccccc1OCC(O)CN(CC(O)COc1cccc2ccccc12)C(C)C (configuration not stated),,"inconclusive [inhibitor, single point]"
COc1ccccc1C(=O)Nc1ccc(S(=O)(=O)N2CCCCC2c2cccnc2)cc1 (configuration not stated),,"inconclusive [inhibitor, single point]"
COC(=O)c1[nH]c(C)c(/C(O)=C2\C(=O)C(=O)N(CCCN3CCOCC3)C2c2ccccn2)c1C (configuration not stated),inactive: -13.3%,
